The structures appear in SMILES notation. Among all 52,000 compounds or so, about 4,300 (8.3%) were called active. Cut-off read from the data, not from the text of the source: active = survival mostly below about 52% (no sharp cut-off); inactive = mostly above about 56%. This is one part of the list.

The subject of the assay is DeltatarO mutant. Kind of assay: S. aureus survival, RN4220 and DeltatarO strains – OD600, teichoic acid synthesis inhibitors, primary screen (AID 463173). The settings on record: S. aureus RN4220 wild type/DeltatarO growth, OD600, 18 h, hits give low values, screened at 18.75 µg/mL (by protocol).
`COc1cc(CNn2cnnc2)ccc1OCC(=O)NC(C)(C)C`: the survival was inactive: 69%.
For the molecule `Cc1ccc(NC(=O)c2cc(S(=O)(=O)N3CCc4ccccc43)ccc2F)cc1Cl`, the survival was inactive: 92%.
As for `CCOc1ccc(NC(=O)C2CCN(c3nnc(-n4c(C)ccc4C)s3)CC2)cc1`, the figure is inactive: 90%; as for `COc1ccc(NC(=O)CSc2nc3ccccc3n2Cc2cccc(OC)c2)cc1`, inactive: 134%.
As for `COCCNC(=O)c1cccc(-n2c(C)nc3cccnc32)c1`, the figure is inactive: 95%; as for `Cc1nc(-c2cccnc2)sc1CCNS(=O)(=O)c1ccc(F)cc1`, inactive: 75%.
For `Cc1cc(S(=O)(=O)Nc2ccc(-c3ccc(N4CCCCCC4)nn3)cc2)c(C)cc1Cl` the value was inactive: 73%; for `CCOC(=O)c1ccccc1NC(=O)c1ccncc1`, inactive: 87%.
Take `CCN1CCN(c2ncc3c(n2)CCN(Cc2ccc(OC(C)C)cc2)C3)CC1`: the survival was inactive: 81%.
With `O=C(NC1CCCCC1)NC1CCN(Cc2nnnn2Cc2ccc3c(c2)OCO3)CC1`, the survival was inactive: 88%.
As for `Cc1cccc(-c2nc(SCCCOc3ccc(Cl)c(C)c3)n3[nH]c(=O)cc3n2)c1`, the figure is inactive: 72%; as for `CCOC(=O)c1ccc(-c2ccc(/C=C(\C#N)C(=O)Nc3ccc(OCC)cc3)o2)cc1`, inactive: 60%; as for `CCc1ccc(-n2c(=O)c3cccnc3n2CC(=O)Nc2cc(F)ccc2F)cc1`, inactive: 90%.
For `CCOC(=O)N1CCc2c(sc(NCc3cc(OC)c(OC)cc3OC)c2C(=O)Nc2ccc(OCC)cc2)C1`, the survival was inactive: 89%.
As for `CCN(CC)C(=O)Cn1cc(SCC(=O)Nc2ccccc2C)c2ccccc21`, the figure is inactive: 74%; as for `CC(C)N(C(=O)CN1CCN(Cc2ccccc2)CC1)C(C)C`, inactive: 62%; as for `CCc1nn2c(=O)cc(COC(=O)c3ccco3)nc2s1`, inactive: 102%.
`CCOC(=O)C1CCN(S(=O)(=O)c2csc(C(N)=O)c2)CC1`: the survival was inactive: 70%.
For `Cc1ccc(-c2cn3c(n2)sc2cc(C(=O)NC(C)C45CC6CC(CC(C6)C4)C5)ccc23)cc1` (configuration not stated) the value was inactive: 54%; for `CCCC(=O)Nc1ccc2c(C)cc(C)nc2n1`, inactive: 99%; for `COc1ccc(N2CC(NC(=O)c3ccc(Br)o3)CC2=O)cc1` (configuration not stated), inactive: 81%.
As for `COC(=O)c1nnn(-c2cccc(C)c2)c1C(=O)OC`, the figure is inactive: 87%.
As for `COc1ccc(C2(CNC(=O)C(=O)Nc3ccc(F)cc3)CCCC2)cc1OC`, the figure is inactive: 65%; as for `COc1ccc(Cl)cc1-n1nnc(-c2nsc(NC(=O)c3ccccc3Cl)n2)c1C`, active: 23%; as for `Cc1ccc(NC(=O)C2CCC(CNS(=O)(=O)c3csc(C(N)=O)c3)CC2)cc1Cl` (configuration not stated), inactive: 77%.
With `CCCSc1nc2sc3c(c2c(=O)n1Cc1ccccc1)CC(C)(CC)OC3` (configuration not stated), the survival is active: 14%.
`CCc1ccccc1NC(=O)C(=O)NCC(c1cccnc1)N1CCN(c2ccccc2F)CC1` (configuration not stated): the survival was inactive: 57%.
Regarding `CCc1nn(Cc2cc(C)ccc2C)c(=O)c2cc3cc(C)ccc3n12`, the survival is inactive: 95%.
For the molecule `CC(C)(C)C(=O)Cn1c(C(=O)O)cc2ccccc21`, the survival was inactive: 98%.
On to `CCOC(=O)c1c(S(=O)(=O)NCC(=O)Nc2cc(C)ccc2C)c(C)n(C)c1C`, for which the survival was inactive: 84%.
In the case of `Cc1ccc(NS(=O)(=O)c2ccc3c(c2)CCCN3C(=O)C2CCC2)c(C)c1`, the survival is inactive: 85%.
Regarding `N#Cc1cc(O)c(-n2nnc3ccccc32)cc1C#N`, the survival is inactive: 101%.
With `O=C(N/N=C1/SCC(=O)N1Cc1ccco1)c1ccccc1F`, the survival was inactive: 105%.
For `COc1ccccc1N1CCN(CCCNC(=O)c2cnn(-c3ccccc3)c2C2CCN(C(=O)OC(C)(C)C)CC2)CC1` the value was inactive: 85%.
Regarding `Nc1ccnn1C1CCCC1`, the survival is inactive: 94%.
In the case of `CC(C)NCC(O)COc1ccccc1` (configuration not stated), the survival was inactive: 109%.
For `Cc1ccccc1C(=O)Nc1nc(-c2nnn(-c3ccc(C(C)C)cc3)c2C)ns1` the value was inactive: 88%; for `O=C(Cn1ncc2c([nH]c3ccccc32)c1=O)NCC1CCN(Cc2ccc(F)cc2)CC1`, inactive: 92%.
For `CCOc1ccccc1CNC(=O)C1CCN(S(=O)(=O)c2ccc3c(ccn3C)c2)CC1` the value was inactive: 96%.
On to `CCOc1ccc(C(=O)NCCS(=O)(=O)N2CCN(c3ccccc3F)CC2)cc1OCC`, for which the survival was inactive: 73%.
As for `COc1ccc(CN2CCN(c3ncnc4sc5c(c34)CC(C)CC5)CC2)cc1F` (configuration not stated), the figure is inactive: 83%.
As for `C/C=C/C(=O)N1c2ccccc2C(C)=CC1(C)C`, the figure is inactive: 110%.
For `O=C(NCc1cccc(F)c1)C1CC(O)CN1C(=O)Nc1ccccc1` (configuration not stated) the value was inactive: 86%; for `Cc1ccc(Cl)cc1N1CCN(S(=O)(=O)c2ccc3c(c2)CCCN3C(=O)C2CCC2)CC1`, inactive: 69%; for `CCCCCn1c(-c2ccc(OC)c(OC)c2)nc2ccccc21`, active: 1%.
For the molecule `O=C(NCCc1ccccc1)c1cc(Sc2cccc(Cl)c2)nc2ccccc12`, the survival is inactive: 88%.
As for `Cc1nn(CC(=O)Nc2ccc3c(c2)oc2ccccc23)c(=O)c2ccccc12`, the figure is inactive: 92%.
For `CCCn1nnnc1SCC(=O)c1ccccc1` the value was inactive: 112%.
Regarding `COc1ccc(NS(=O)(=O)c2ccc3[nH]c4c(c3c2)CCCC4)cc1Cl`, the survival is inactive: 76%.
As for `Cc1ccc(CN2C(=O)c3oc4ccc(C)cc4c(=O)c3C2c2ccc(O)cc2)cc1` (configuration not stated), the figure is inactive: 75%; as for `COc1cc(OC)c(NC(=O)Cn2c(=O)oc3cc(S(=O)(=O)N4CCCC4)ccc32)cc1Cl`, inactive: 78%.
`Cn1ccnc1SCC(=O)Nc1ccccc1`: the survival is inactive: 92%.
As to `Cc1ccc(C)n1-c1nnc(N2CCCC(C(=O)NCc3cccc(Cl)c3)C2)s1` (configuration not stated), the survival was inactive: 66%.
In the case of `N#CC1=C(N)SC(N)=C(C#N)C1c1ccc(O)cc1`, the survival is inactive: 82%.
For `CCc1ccc(-n2c(Cc3ccccc3)nnc2SCc2nc(-c3cccs3)no2)cc1` the value was inactive: 83%; for `Cc1ccc(/C=C/c2onc(C)c2S(=O)(=O)N2CCC(C(=O)NCC(C)c3ccccc3)CC2)cc1` (configuration not stated), inactive: 77%; for `CC1=C(C(=O)NCc2ccc(Cl)cc2)C2(CCCCC2)OC1=O`, inactive: 76%.
As for `Cc1nc2ccn(Cc3cccs3)c(=O)c2cc1C(=O)Nc1ccccc1`, the figure is inactive: 84%; as for `CCn1cc(S(=O)(=O)c2cccc(Cl)c2)c(=O)c2cc(F)c(N3CCN(c4ccccc4)CC3)cc21`, inactive: 79%.
As for `COc1cccc2c(=O)c(C(=O)NCc3cccs3)c[nH]c12`, the figure is inactive: 85%; as for `CCN1C(=O)c2ccccc2Sc2ccc(C(=O)NCCCN(CC(C)C)CC(C)C)cc21`, inactive: 86%.
`O=C(Cn1c(C(=O)NCc2ccco2)cc2sccc21)c1ccccc1`: the survival was inactive: 92%.
For `CN1C(=O)c2ccccc2Sc2ccc(NC(=O)c3ccccc3F)cc21`, the survival is inactive: 101%.
For `CCCNC(=O)N1CCC(C(=O)c2cccc(F)c2)CC1` the value was inactive: 87%; for `Cc1c(-c2nsc(NC(=O)c3ccccc3)n2)nnn1-c1ccc(C(F)(F)F)c(Cl)c1`, inactive: 86%; for `CCCCCS(=O)(=O)c1oc(-c2cccs2)nc1S(=O)(=O)c1ccc(C)cc1`, active: 3%.
For `CC(C)(C)OC(=O)N1CCC(c2c(C(=O)N3CCC(c4ccccc4)C3)cnn2-c2cccc(Cl)c2)CC1` (configuration not stated) the value was inactive: 124%; for `COc1ccc(C2CC(=O)N(CC(=O)Nc3cc(C)ccc3C)c3ccccc3S2)cc1` (configuration not stated), inactive: 79%; for `CCCCN(CCCC)C(=O)c1cc2c(=O)n3cccc(C)c3nc2s1`, active: -13%.
For the molecule `Cc1cccc(OCC(=O)N(Cc2cccs2)c2ccc(Cl)cc2)c1C`, the survival is inactive: 61%.
Regarding `NC(=O)c1ccc(S(N)(=O)=O)o1`, the survival is inactive: 93%.
For `COC(=O)c1c(-c2cccs2)csc1NC(=O)COc1ccc(C(C)(C)C)cc1`, the survival is inactive: 82%.
With `Cc1ccc(C(=O)Nc2ccc(-c3cn4cccnc4n3)cc2)cc1C`, the survival was inactive: 51%.
For `COc1ccccc1CNc1ccc(-c2nc(-c3cccnc3)no2)cc1[N+](=O)[O-]` the value was inactive: 78%; for `CCOc1ccccc1C1C(C(=O)N2CCCCC2)=C(C)Nc2nc3ccccc3n21` (configuration not stated), inactive: 70%.
As for `CCOc1ccccc1NC(=O)c1nn(-c2ccc(C)cc2)c(=O)n(C)c1=O`, the figure is inactive: 74%; as for `Cc1ccccc1NC(=O)NC1(C(=O)N2CCC(C(N)=O)CC2)CCCCC1`, inactive: 81%.
As for `O=C(NCC1CCN(Cc2cccc(Cl)c2)CC1)Nc1cc(Cl)ccc1Cl`, the figure is active: 17%; as for `COc1cccc(NC(=O)CN2C(=O)c3cccnc3Oc3ccc(Cl)cc32)c1`, inactive: 80%.
Consider `COc1ccc(N(C)C(=O)CCn2cnc3onc(-c4ccc(F)cc4)c3c2=O)c(OC)c1`, for which the survival was inactive: 92%.
Take `CCc1ccc(NC(=O)c2sc(-n3nc(C)c(Cc4ccc(OC)cc4)c3C)nc2C)cc1`: the survival is inactive: 100%.
For `O=C(CCC1CCCCC1)Nc1c[nH]c(=O)[nH]c1=O` the value was inactive: 87%; for `Cc1ccc(NC(=O)NCCc2c(C)nn(C)c2C)cc1Cl`, inactive: 109%.
For `CCn1ccc2cc(S(=O)(=O)N3CCCN(C(=O)Nc4cccc(Cl)c4)CC3)ccc21` the value was inactive: 83%.
For `Cc1cc(NC(=O)c2cccnc2)ccc1NC(=O)c1ccco1` the value was inactive: 102%.
Regarding `COc1ccc(C2=NN(CC(=O)NCCc3ccc(OC)c(OC)c3)C(=O)CC2)cc1`, the survival was inactive: 100%.
For `COc1ccc(N(C)C(=O)c2cn(C3CCCCC3)c(=O)c3c2c2ccccc2n3C)cc1` the value was inactive: 67%.
Turning to `Cc1cc2n(n1)C(c1cc(C(C)(C)C)c(O)cc1O)Nc1ccccc1-2` (configuration not stated), the survival was inactive: 141%.
For `CCOc1ccc(OCC)c(NC(=O)c2nnn(CC(=O)Nc3ccc(C)cc3C)c2N)c1`, the survival is inactive: 104%.
For `CSc1cccc(NC(=O)CN2C(=O)COc3ccc(Cl)cc32)c1` the value was inactive: 50%.
For `CCOc1ccc(C(=O)N2CCC(c3nc4ccccc4o3)CC2)cc1` the value was inactive: 81%.
On to `CCOC(=O)C1CCN(c2ncnc3c2oc2ccccc23)CC1`, for which the survival was inactive: 113%.
